The other results are listed elsewhere or left out. Single values of this set are uncertain. Values with irradiation are relative to irradiated vehicle.

Assay [1] deals with A549-Dual. The assay can be described thus: NF-kB reporter (SEAP) activity, viability-corrected, relative to vehicle (fold change vs vehicle); higher = more activation of STING-IRF / NF-kB immune response reporter. The following applies: 10 µM.
For assay [2], the system named is A549-Dual. The assay can be described thus: ISRE reporter (Lucia luciferase) activity, viability-corrected, relative to vehicle (fold change vs vehicle); higher = more activation of STING-IRF / NF-kB immune response reporter. The following applies: 10 µM.
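Throughout, for NF-kB reporter (SEAP) activity, viability-corrected, relative to vehicle: viability correction based on the alamar blue assay, with concentrations leaving 10% survival or less dropped.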

With `O=C1CCCC2C3CCCN4CCCC(CN12)C34` (stereo not given) [Sophoridine], the NF-kB reporter in assay [1] (irradiation: 8 Gy/4 fr) was 0.945; in assay [1] (irradiation: none) it was 1.02. The ISRE reporter came to 1.02 in assay [2] (irradiation: 8 Gy/4 fr) and 1.2 in assay [2] (irradiation: none).

As to `Cc1ccc2c(c1)C13CCCCC1C(C2)N(C)CC3.O=P(O)(O)O` (stereo not given) [Dimemorfan phosphate], the NF-kB reporter in assay [1] (irradiation: 8 Gy/4 fr) is 0.86; in assay [1] (irradiation: none), 0.593. Moreover, the results for the ISRE reporter in assay [2] (irradiation: 8 Gy/4 fr) and in assay [2] (irradiation: none) were 0.915 and 0.655, respectively.

`CN1C2CCC1CC(OC(=O)C(CO)c1ccccc1)C2.CN1C2CCC1CC(OC(=O)C(CO)c1ccccc1)C2.O=S(=O)(O)O` (stereo not given) [Atropine sulfate]: the NF-kB reporter in assay [1] (irradiation: 8 Gy/4 fr) was found to be 0.79; in assay [1] (irradiation: none) it was 0.833. Further, the figures for the ISRE reporter in assay [2] (irradiation: 8 Gy/4 fr) and in assay [2] (irradiation: none) were 0.759 and 0.588, respectively.

`COc1ccc2c(c1)[nH]c1c(C)nccc12` [Harmine]: the NF-kB reporter in assay [1] (irradiation: 8 Gy/4 fr) was found to be 1.2; in assay [1] (irradiation: none), 1.51. Further, the ISRE reporter in assay [2] (irradiation: 8 Gy/4 fr) was 0.619; in assay [2] (irradiation: none) it was 1.71.

On to `COc1ccc(CN2CCNCC2)c(OC)c1OC.Cl.Cl` [Trimetazidine dihydrochloride], for which the NF-kB reporter in assay [1] (irradiation: 8 Gy/4 fr) is 0.767; in assay [1] (irradiation: none), 1.18. Besides, the results for the ISRE reporter in assay [2] (irradiation: 8 Gy/4 fr) and in assay [2] (irradiation: none) were 0.681 and 0.699, respectively.

As to `CN1C2CC(OC(=O)C(CO)c3ccccc3)CC1C1OC12` (stereo not given) [Scopolamine], the NF-kB reporter in assay [1] (irradiation: 8 Gy/4 fr) stood at 0.965; in assay [1] (irradiation: none) it was 1.15. In addition, the ISRE reporter in assay [2] (irradiation: 8 Gy/4 fr) is 0.785; in assay [2] (irradiation: none) it was 0.597.

`C[N+]1(C)C2CC(OC(=O)C(CO)c3ccccc3)CC1C1OC12.[Br-]` (stereo not given) [Methscopolamine]: the NF-kB reporter in assay [1] (irradiation: 8 Gy/4 fr) was determined as 0.74; in assay [1] (irradiation: none), 0.845. Besides, the ISRE reporter was 0.67 in assay [2] (irradiation: 8 Gy/4 fr) and 0.675 in assay [2] (irradiation: none).

As to `CCN(C)C(=O)Oc1cccc(C(C)N(C)C)c1` (stereo not given) [Rivastigmine], the figures for the NF-kB reporter in assay [1] (irradiation: 8 Gy/4 fr) and in assay [1] (irradiation: none) were 0.754 and 1.47, respectively. The ISRE reporter in assay [2] (irradiation: 8 Gy/4 fr) was 0.706; in assay [2] (irradiation: none), 0.725.

For `CN1C(=O)COc2c(C(=O)NC3CN4CCC3CC4)cc(Cl)cc21.Cl` (stereo not given) [Azasetron HCl], the results for the NF-kB reporter in assay [1] (irradiation: 8 Gy/4 fr) and in assay [1] (irradiation: none) were 0.607 and 0.615, respectively. In addition, the ISRE reporter amounted to 0.682 in assay [2] (irradiation: 8 Gy/4 fr) and 0.766 in assay [2] (irradiation: none).

Regarding `Cc1cc(C2=NOC(c3cc(Cl)cc(Cl)c3)(C(F)(F)F)C2)ccc1C(=O)NCC(=O)NCC(F)(F)F` (stereo not given) [Fluralaner], the NF-kB reporter in assay [1] (irradiation: 8 Gy/4 fr) was found to be 0.639; in assay [1] (irradiation: none), 0.751. The ISRE reporter amounted to 0.754 in assay [2] (irradiation: 8 Gy/4 fr) and 0.929 in assay [2] (irradiation: none).

`CCCCCCC(=O)OC1CCC2C3CCC4=CC(=O)CCC4(C)C3CCC12C` (stereo not given) [Testosterone Enanthate]: the NF-kB reporter was 0.78 in assay [1] (irradiation: 8 Gy/4 fr) and 0.864 in assay [1] (irradiation: none). Further, the ISRE reporter came to 0.728 in assay [2] (irradiation: 8 Gy/4 fr) and 0.711 in assay [2] (irradiation: none).

Regarding `CCC(CO)NC(=O)C1C=C2c3cccc4c3c(cn4C)CC2N(C)C1.O=C(O)/C=C\C(=O)O` (stereo not given) [Methysergide Maleate], the results for the NF-kB reporter in assay [1] (irradiation: 8 Gy/4 fr) and in assay [1] (irradiation: none) were 0.783 and 0.775, respectively. The ISRE reporter in assay [2] (irradiation: 8 Gy/4 fr) was found to be 0.794; in assay [2] (irradiation: none), 0.577.

Regarding `Cc1ccccc1-n1c(CF)nc2ccc(N)cc2c1=O` [Afloqualone], the NF-kB reporter was determined as 0.593 in assay [1] (irradiation: 8 Gy/4 fr) and 0.673 in assay [1] (irradiation: none). The figures for the ISRE reporter in assay [2] (irradiation: 8 Gy/4 fr) and in assay [2] (irradiation: none) were 0.287 and 0.229, respectively.

For the molecule `NCCC(O)(P(=O)([O-])O)P(=O)([O-])O.[Na+].[Na+]` [Pamidronate Disodium], the values for the NF-kB reporter in assay [1] (irradiation: 8 Gy/4 fr) and in assay [1] (irradiation: none) were 0.774 and 0.753, respectively. The values for the ISRE reporter in assay [2] (irradiation: 8 Gy/4 fr) and in assay [2] (irradiation: none) were 0.75 and 0.605, respectively.

Consider `CC(C)NCC(O)c1ccccc1Cl.Cl` (stereo not given) [Clorprenaline HCl], for which the NF-kB reporter in assay [1] (irradiation: 8 Gy/4 fr) is 0.86; in assay [1] (irradiation: none) it was 0.979. In addition, the ISRE reporter in assay [2] (irradiation: 8 Gy/4 fr) turned out to be 0.86; in assay [2] (irradiation: none), 0.751.

With `O=c1[nH]c2ccccc2n1CCCN1CCC(n2c(=O)[nH]c3cc(Cl)ccc32)CC1` [Domperidone], the NF-kB reporter turned out to be 1.1 in assay [1] (irradiation: 8 Gy/4 fr) and 0.984 in assay [1] (irradiation: none). In addition, the ISRE reporter came out at 1.06 in assay [2] (irradiation: 8 Gy/4 fr) and 1.17 in assay [2] (irradiation: none).

On to `COc1cc(C2c3cc4c(cc3C(O)C3COC(=O)C23)OCO4)cc(OC)c1OC` (stereo not given) [Picropodophyllin (PPP)], for which the NF-kB reporter is 0.911 in assay [1] (irradiation: 8 Gy/4 fr) and 1.86 in assay [1] (irradiation: none). Also, the ISRE reporter in assay [2] (irradiation: 8 Gy/4 fr) is 0.0828; in assay [2] (irradiation: none) it was 0.459.

For `CCC1CN2CCC1CC2C(O)c1ccnc2ccc(OC)cc12` (stereo not given) [Hydroquinidine], the values for the NF-kB reporter in assay [1] (irradiation: 8 Gy/4 fr) and in assay [1] (irradiation: none) were 0.712 and 1.16, respectively. The ISRE reporter is 0.733 in assay [2] (irradiation: 8 Gy/4 fr) and 0.839 in assay [2] (irradiation: none).

Turning to `Br.CN1C2CC(OC(=O)C(CO)c3ccccc3)CC1C(O)C2` (stereo not given) [Anisodamine Hydrobromide], the results for the NF-kB reporter in assay [1] (irradiation: 8 Gy/4 fr) and in assay [1] (irradiation: none) were 0.748 and 0.764, respectively. Besides, the ISRE reporter in assay [2] (irradiation: 8 Gy/4 fr) amounted to 0.686; in assay [2] (irradiation: none) it was 0.646.

For the molecule `COc1ccc(C(=O)O)cc1OC` [Veratric acid], the NF-kB reporter in assay [1] (irradiation: 8 Gy/4 fr) amounted to 0.747; in assay [1] (irradiation: none), 0.594. The ISRE reporter in assay [2] (irradiation: 8 Gy/4 fr) worked out at 0.767; in assay [2] (irradiation: none) it was 0.694.

In the case of `Cc1cccc(C)c1NC1=NCCCS1` [Xylazine], the NF-kB reporter in assay [1] (irradiation: 8 Gy/4 fr) worked out at 0.838; in assay [1] (irradiation: none), 1.48. Also, the ISRE reporter in assay [2] (irradiation: 8 Gy/4 fr) amounted to 0.765; in assay [2] (irradiation: none), 0.779.

As for `CN(C)C(=O)Oc1cccc([N+](C)(C)C)c1.[Br-]` [Neostigmine Bromide], the NF-kB reporter worked out at 0.553 in assay [1] (irradiation: 8 Gy/4 fr) and 0.648 in assay [1] (irradiation: none). Besides, the ISRE reporter was found to be 0.563 in assay [2] (irradiation: 8 Gy/4 fr) and 0.812 in assay [2] (irradiation: none).

For the molecule `CCCCCc1cc(O)cc(O)c1` [Olivetol], the NF-kB reporter in assay [1] (irradiation: 8 Gy/4 fr) came out at 1.03; in assay [1] (irradiation: none), 1.21. In addition, the values for the ISRE reporter in assay [2] (irradiation: 8 Gy/4 fr) and in assay [2] (irradiation: none) were 0.766 and 0.895, respectively.

For the molecule `CCC(C)(C)C1C(=O)N2CCCC2C2(O)OC(NC(=O)C3CC4c5cccc6[nH]cc(c56)CC4N(C)C3)(C(C)C)C(=O)N12` (stereo not given) [Ergoloid Mesylates], the NF-kB reporter in assay [1] (irradiation: 8 Gy/4 fr) turned out to be 0.814; in assay [1] (irradiation: none), 1.53. Also, the ISRE reporter in assay [2] (irradiation: 8 Gy/4 fr) came out at 0.652; in assay [2] (irradiation: none), 3.04.

Turning to `S=C=NCc1ccccc1` [Benzyl isothiocyanate], the NF-kB reporter in assay [1] (irradiation: 8 Gy/4 fr) is 1.16; in assay [1] (irradiation: none) it was 1.03. In addition, the ISRE reporter in assay [2] (irradiation: 8 Gy/4 fr) is 0.831; in assay [2] (irradiation: none), 1.14.

These data come from the supplement of paper PMC9174493.
